Some of the results follow. Cleavage of a single-stranded DNA pool by Rep nickase domains was read by sequencing (3 µM enzyme, 1 h, 37 °C); shown is the middle of each 90-letter strand. Values are log2 of uncut reads against the no-enzyme pool; the lower, the more was cut; hits are not called. Shares of all reads are compared; uncut strands gain when others are lost, and binding without cutting may add a little.
These sequences were tested on T1, Rep nickase domain of tomato golden mosaic virus (assay: uncleaved DNA left, log2 of reads against the no-enzyme library (log2 ratio); higher = less cleavage (more negative = more Rep cleavage of the k-mer); sequences stand for … in CTCGTCCG…ACCGGAGA).
T1 sequence (residues 1-124, tag not shown): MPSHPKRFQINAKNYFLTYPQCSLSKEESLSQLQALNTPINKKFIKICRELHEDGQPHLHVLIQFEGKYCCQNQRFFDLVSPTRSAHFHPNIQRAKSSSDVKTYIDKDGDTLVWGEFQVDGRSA
Protocol: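 A pool of 90-nt single-stranded DNAs with seven random bases just before the constant AC of the nick site (name = the seven bases) was cut by 3 µM recombinant His6-SUMO-tagged Rep nickase domain (300 nM DNA, 50 mM HEPES pH 8.0, 50 mM NaCl, 1 mM MnCl2, 1 h, 37 °C, three replicates). Uncut DNA was amplified and sequenced.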
With GCAATGA the “uncleaved DNA left (log2)” value was 0.0205. GCAGCCC was tested, and the “uncleaved DNA left (log2)” value was 0.0471. GTTGACA was tested, and the “uncleaved DNA left (log2)” value was 0.0129. In the case of AACCTCC, the “uncleaved DNA left (log2)” value is reported as 0.0883. ACTAAAC was tested, and the “uncleaved DNA left (log2)” value was -0.00746. With AACGAGA the “uncleaved DNA left (log2)” value was 0.0808. For CTTATAA, the “uncleaved DNA left (log2)” value was 0.131. In the case of CCAGGCC, the “uncleaved DNA left (log2)” value is reported as -0.0276. ATTTCGA was tested, and the “uncleaved DNA left (log2)” value was -0.0385. CTTGGGG was tested, and the “uncleaved DNA left (log2)” value was 0.0838. GCATCCG was tested, and the “uncleaved DNA left (log2)” value was -0.0062. With GAATTGA the “uncleaved DNA left (log2)” value was -0.0154. CTAATGT was tested, and the “uncleaved DNA left (log2)” value was -0.0546. TAGGGTA was tested, and the “uncleaved DNA left (log2)” value was 0.138. CAATAGT was tested, and the “uncleaved DNA left (log2)” value was -3.87. In the case of TGGGTAA, the “uncleaved DNA left (log2)” value is reported as -0.0163. With GCGAGTA the “uncleaved DNA left (log2)” value was 0.117. In the case of CCCATCT, the “uncleaved DNA left (log2)” value is reported as -0.0691. In the case of ACCCAGC, the “uncleaved DNA left (log2)” value is reported as -0.0308. With AATCCTT the “uncleaved DNA left (log2)” value was -0.233. In the case of GTTAGAG, the “uncleaved DNA left (log2)” value is reported as 0.0331. In the case of ACCCGCA, the “uncleaved DNA left (log2)” value is reported as 0.0476. For GGATGCC, the “uncleaved DNA left (log2)” value was -0.0299. In the case of TATTATA, the “uncleaved DNA left (log2)” value is reported as -0.00929. With AGACATA the “uncleaved DNA left (log2)” value was -0.0289. For TTGGTGT, the “uncleaved DNA left (log2)” value was -0.0596. TGAGCGT was tested, and the “uncleaved DNA left (log2)” value was -0.0246. TAGCGCA was tested, and the “uncleaved DNA left (log2)” value was 0.00903. For AGTAGGC, the “uncleaved DNA left (log2)” value was -0.00902. AGTTGAT was tested, and the “uncleaved DNA left (log2)” value was 0.188. For CGCAGTC, the “uncleaved DNA left (log2)” value was -0.0535. In the case of TAAATGA, the “uncleaved DNA left (log2)” value is reported as -0.11. AGAGCAA was tested, and the “uncleaved DNA left (log2)” value was -0.0552. With CTGTTAG the “uncleaved DNA left (log2)” value was -0.0205. With CGATTGG the “uncleaved DNA left (log2)” value was -0.0741. GACTTTG was tested, and the “uncleaved DNA left (log2)” value was -0.131. For CGAAATG, the “uncleaved DNA left (log2)” value was -0.091. For ACTATCC, the “uncleaved DNA left (log2)” value was -0.0522. For ACGCGCG, the “uncleaved DNA left (log2)” value was 0.000832. In the case of GGACTGG, the “uncleaved DNA left (log2)” value is reported as 0.0866.
